Results as given in ChEMBL document CHEMBL4888484, “Replenishing the malaria drug discovery pipeline: Screening and hit evaluation of the MMV Hit Generation Library 1 (HGL1) against asexual blood stage Plasmodium falciparum ,using a nano luciferase reporter read-out” (2022).
The whole screen tested about 150,000 compounds, of which about 540 (0.36%) showed an effect of 50% or more. This is one part of the list.

System: Plasmodium falciparum
Experiment: Primary screen in NF54 nanoGlo assay, in single point, at 2uM, 72h; a lower Z score goes with more inhibition
Type: functional, Erythrocyte
Settings: timepoint 72 hour

SMILES	% Inhibition [%]	Z score	% Inhibition (2 µM) [%]	Z score (2 µM)
Cc1cccc(C(=O)N2CCC3(CCC(=O)N(CCc4cccnc4)C3)CC2)n1	6	-1.07	–	–
CCO[C@H]1COC[C@@H]1NC(=O)Nc1ccc(C)c(C)c1	-15	1.41	–	–
CN1C(=O)CCC12CCN(S(=O)(=O)Cc1ccc(Cl)cc1F)CC2	-3	0.59	–	–
Cc1nn(C)cc1CN1CCCN(c2nc3ccccc3s2)CC1	-13	1.68	–	–
CN(Cc1cccc2nonc12)[C@H]1COC[C@@H]1O	-5	1.15	–	–
COc1cn(CC(=O)Nc2nc(Cc3cc(F)cc(F)c3)n[nH]2)c(C)cc1=O	0	0.03	–	–
CCN1CCN(C(=O)CCC2CCN(C/C=C/c3ccccc3OC)CC2)CC1	-2	0.4	–	–
CN(C)C(=O)COc1ccc(NCc2noc3c2CCCC3)c(F)c1	-6	0.58	–	–
COCCN(CC(=O)Nc1cc(OC)cc(OC)c1)C1CCCC1	-11	1.08	–	–
O=S(=O)(c1ccc2c(c1)CCCC2)N1CCC2(CC1)OCCCO2	-19	2.17	–	–
O=C1N[C@@](Cc2ccc(F)cc2)(C2CCNCC2)C(=O)N1CCc1cccs1	-14	2.62	–	–
COC(=O)Cn1c(=O)c2c(nc(-n3nc(C)cc3C)n2Cc2ccc(F)cc2)n(C)c1=O	3	-0.46	–	–
CC[C@H](NC(=O)Cc1cncnc1)C1CCCCC1	-11	1.75	–	–
Cc1nnc(-c2cccc(NCc3ccccc3C3CC3)c2)n1C	-14	2.46	–	–
CC(C)(C)OC(=O)NC1CCCCCCC1C(=O)NCCCNc1ncccn1 (stereo not drawn)	3	-0.68	–	–
O=C(c1ccccc1)N1CC[C@H](CN(CC2CC2)C2CCC2)C1	-1	0.18	–	–
Cc1cccc(N(C)C(=O)CCc2ccsc2)n1	2	-0.25	–	–
CC(C)[C@@H](c1ccccn1)n1cc(C2CCN(C(C)C)CC2)nn1	-12	1.11	–	–
Cc1ccc(C2=C[C@@H](c3ccc(C)cc3)n3nc(NC(=O)c4cccc(Cl)c4)nc3N2)cc1	16	-2.03	–	–
O=C(c1ccc(C2CC2)nc1O)N1CC(c2cccc(Cl)c2)C1	-4	0.83	–	–
COc1cccc([C@H]2CC(=O)Nc3nc(N4CCCCC4)sc32)c1	–	–	-15	-1.57

SMILES	% Inhibition [%]	Z score	% Inhibition (2 µM) [%]	Z score (2 µM)
NC(=O)C1CCN(C(=O)CS(=O)(=O)c2ccc(F)c(F)c2)CC1	2	-0.41	–	–
CN1CCC(NC(=O)CC2CC3CCC2C3)CC1 (stereo not drawn)	33	-3.73	–	–
CCc1cnc(N)nc1N1CC(OCc2ccccc2F)C1	-13	1.21	–	–
CCOCC(=O)NCc1cc(Br)ccc1C	-6	0.73	–	–
COC(=O)CCN1CCN(C(=O)c2cc[nH]c2C2CC2)C[C@@H]1C	-10	1.71	–	–
Cc1ccc(C(=O)N2CCN(c3nc(-c4ccccc4)nc4cc(Cl)ccc34)CC2)cc1	-1	0.08	–	–
CCN1CC[C@H](Nc2nc3ccccc3s2)C1=O	-10	1.14	–	–
O=C(O)C1CC(c2ccccc2)CN(C(=O)c2cccs2)C1 (stereo not drawn)	-18	1.68	–	–
Cc1cc(C(=O)N2CC[C@H](OCc3ccccc3)C2)n(C)n1	-8	0.92	–	–
CC(C)(c1ccc(Oc2ccc3c(c2)C(=O)N(c2nccs2)C3=O)cc1)c1ccc(Oc2ccc3c(c2)C(=O)N(c2nccs2)C3=O)cc1	-4	0.81	–	–
FC(F)(F)c1ccc(NCc2ccco2)nn1	-15	2.39	–	–
Cc1cc(NC(=O)c2cc3c(s2)CCCCCC3)no1	2	-0.23	–	–
O=C1C(=O)N(CC(=O)N2CCc3ccccc3C2)c2ccccc21	4	-0.54	–	–
O=C(Cc1ccccc1Cl)N[C@H]1CC[C@H](Oc2cnccn2)CC1	-14	1.61	–	–
Cc1nn(C)c(C)c1C(=O)N1CC(n2nccn2)C1	-6	0.64	–	–
CC(C)c1cncc(NC(=O)c2ccc(C(F)F)nc2)c1	-15	2.75	–	–
CC(CN1CC(O)CC1c1ccccc1C(F)(F)F)CS(C)(=O)=O (stereo not drawn)	-6	0.9	–	–
Cc1cc2ncc(C(C)N[C@@H](C)C(=O)N3CCCCC3)c(C)n2n1 (stereo partly drawn)	-16	1.58	–	–
CCOCC1CCN(C(=O)C2C3CCCC32)C1 (stereo not drawn)	-11	1.38	–	–
O=S(=O)(c1ccccc1Cl)N1CCN(c2nc3nccc(-c4cccc(C(F)(F)F)c4)n3n2)CC1	-2	0.29	–	–
CN(C(=O)C1CC1c1ccccc1C(F)(F)F)c1ccc(C(N)=O)cc1 (stereo not drawn)	-2	0.19	–	–

SMILES	% Inhibition [%]	Z score	% Inhibition (2 µM) [%]	Z score (2 µM)
COCc1ncc(-c2noc(C(=O)Nc3ccccc3)n2)c(N)n1	-18	2.97	–	–
CN(Cc1nccs1)C(=O)N[C@H](c1ccccc1F)C1CCCC1	-9	1.03	–	–
COCC1(C2CCC2)CN(C(=O)NCCC2CCS(=O)(=O)CC2)C1	-11	2.09	–	–
Cn1cc(C(=O)N2CCc3ccccc3C2)c2ccccc21	7	-0.83	–	–
C[C@H](OC(=O)c1cc(Cl)c[nH]1)C(=O)Nc1ccc(S(=O)(=O)N2CCOCC2)cc1	-13	2.5	–	–
O=C1CN(C(=O)NC2CCCCC2)CCN1	-7	1.04	–	–
FC(F)(F)C1=Nc2ccccc2N(c2ccc(Cl)c(Cl)c2)C1	4	-0.48	–	–
Cc1nc([C@H](C)NCc2cc3c(cc2Cl)OCO3)n[nH]1	-3	0.51	–	–
COc1cc2nc(C(=O)NC3CCCCCC3)c(=O)n(C)c2cc1OC	-16	1.98	–	–
O=C1NCCCc2[nH]c(-c3ccccc3-n3ccnc3)nc21	-8	0.88	–	–
COc1cc(Cl)ccc1Oc1ncnc2oc(C)c(C)c12	-2	0.26	–	–
Cc1cc(O)n2nc(CC(=O)N[C@H]3CCCN(Cc4ccccn4)C3)nc2n1	-11	1.67	–	–
CN(C)C1CN(C(=O)c2ncsc2-c2ccccc2)C1	-1	0.07	–	–
COc1ccc(CN2C(=O)N[C@@H](CC(=O)NC3CCCCC3)C2=O)cc1	-16	2.03	–	–
COc1cccc([C@H]2C[C@@H]2C(=O)N2CCC(O)C(C)(C)C2)c1 (stereo partly drawn)	-4	0.63	–	–
O=C(N[C@H](c1ccccc1)C1CC1)C1CCCCC1	-8	0.91	–	–
Cc1ccc([C@H]2CN(C(=O)c3ccccc3-c3nnn[nH]3)C[C@@H]2N(C)C)cc1	4	-0.64	–	–
CC[C@H](C)N(C)CCNc1ncc(C(=O)N2CCOCC2)cc1Cl	3	-0.32	–	–
COC1CCCC(CC(=O)N2CCCCC2c2nc3ccccc3o2)C1 (stereo not drawn)	-5	0.67	–	–
O=C(Nc1cc(Cl)ccc1Cl)c1nn2c(c1Cl)N[C@@H](c1cccs1)C[C@H]2C(F)(F)F	0	0.03	–	–
O=S1(=O)C[C@@H]2[C@H](C1)N(Cc1ccccc1)CCN2Cc1cncs1	8	-1.07	–	–

SMILES	% Inhibition [%]	Z score	% Inhibition (2 µM) [%]	Z score (2 µM)
CCC(O)(CC)CNC(=O)c1ccc(OC)c(OC(F)F)c1	-4	0.66	–	–
CCc1ccc(CNC(=O)c2ccc3c(c2)nc2n3CC[C@H](C)C2)cc1	-5	0.76	–	–
Cc1nc(-c2ccccc2)c(C(=O)N2CCOC[C@@H]2CC(N)=O)s1	-13	1.68	–	–
CN(C)c1ccncc1NS(=O)(=O)c1ccccc1	4	-0.76	–	–
CCOc1ccc(-c2c[nH]c(-c3ccc(S(=O)(=O)NC)cc3)n2)cc1	3	-0.56	–	–
Cc1ccc(C)c(N2CCN(C(=O)c3ccc4c(c3)N(Cc3ccccc3)C(=O)CO4)CC2)c1	-13	1.76	–	–
CN(CC(=O)N1CCCC1)c1ccc(F)cc1	-1	0.17	–	–
CC(C)(C)OC(=O)Nc1c(F)cccc1Br	4	-0.49	–	–
Cc1nnc(CNC(=O)CN2CCN(Cc3ccccc3)CC2)o1	8	-1.37	–	–
C[C@@H](CCn1cncn1)NS(=O)(=O)c1cncc(Cl)c1	-4	0.56	–	–
O=C(NCC(=O)N1CC[C@H](Nc2ncccn2)[C@@H](O)C1)c1ccccc1	-1	0.3	–	–
O=C1CCC2(CCN(C(=O)c3ccc(O)cc3)CC2)CN1CCc1ccccc1	-4	0.73	–	–
O=C(c1ncncc1Cl)N1CC2CCCCC2C1 (stereo not drawn)	-5	0.76	–	–
C[C@@H](Cc1ccco1)NC(=O)NCc1ccco1	-9	1.19	–	–
Cc1n[nH]c(CC(=O)N2CCC[C@]3(CCC(=O)N(C4CCCC4)C3)C2)n1	-18	2.38	–	–
C[C@]1(C(=O)Nc2ccc(-n3ccc(=O)[nH]3)c(F)c2)CCNC(=O)C1	-4	0.56	–	–
Cc1csc(NS(=O)(=O)c2cccc(N(C)C)c2)n1	-12	1.21	–	–
CC(C)N(CC(=O)N(Cc1ccc(F)cc1)Cc1cccs1)C(=O)Cc1cccs1	-13	1.18	–	–
Cc1cc(C)cc(-n2cc(C(=O)N3CCc4ccccc4C3)nn2)c1	29	-3.29	–	–
O[C@H]1CN(C2CCN(c3ccccc3Cl)CC2)C[C@@H]1F	-1	0.14	–	–
COc1cccc(CNC(=O)C[C@H]2COc3ccccc3NC2=O)c1	-3	0.47	–	–
